# Data published in the supplement of paper PMC10126150.
# Values marked as one replicate rest on one cluster of the flow cell; about a third of the high ones do not repeat.
# System: ATP
# Experiment: switch fluorescence ratio, 500 uM ATP over buffer (Cy3 cluster intensity, sum of 5 cycles each) (fold (ratio)); higher = stronger signal-on switching upon ATP binding; sequences stand for … in TCGTCGGCAGCGTCAGATGTGTATAAGAGACAGTTTTTTTTTTTTTTTTTTTTTTTTT…TC
# Conditions: aptamer strand: ATP DNA aptamer (quencher-CACCTGGGGGAGTATTGCGGAGGAAGG + anchor), 100 nM annealed; ATP concentration: 500 uM; one replicate
# In short: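 Values give the fluorescence ratio for each switch-domain sequence, averaged from per-cluster ratios of summed target-cycle to summed buffer-cycle Cy3 intensity. The Cy3-labelled switching-strand clusters sat on a modified Illumina MiSeq flow-cell, were annealed to 100 nM quencher-labelled ATP aptamer, and were imaged in selection buffer, then after 15 min with 500 uM ATP at 22 °C. Five cycles ran with NaOH stripping and re-annealing between them, and clusters outside 100-1000 RFU were excluded.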
# 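Also: ATP exposure 15 min at 22 °C before imaging.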
row,Sequence,switch fluorescence ratio
1,GTTGGGGCAC,0.991
2,AGGTATCCAA,0.965
3,TTCCCAATCT,1.18
4,CGTTCCGGTA,1.06
5,GGTATCGGGC,1.01
6,TTTGGCATCT,0.993
7,AAGCTACTC,1.74
8,AAGATGAAAA,1.03
9,GACGGGTATG,1.02
10,TACATTCGGA,1.03
11,TTGCGAACTC,1.35
12,AAATGATTAT,0.988
13,CCAAGGGGAA,1.03
14,TGAACTTATA,1.01
15,GCACCATCCG,1.16
16,CAAGCTTCA,1.27
17,CGCAGACACT,1.41
18,ACGTTATCGC,1.14
19,TAGCTTGGTC,0.931
20,TAGAATCGGA,0.952
21,AGCCTCATAC,1.83
22,GCTATTAATA,1.01
23,TTCGGGCGGT,2.09
24,GACCAGCCCG,1.05
25,AAGTACTGG,1.25
26,TTTCGGCTGG,0.977

row,Sequence,switch fluorescence ratio
1,TGATCCGTA,1.05
2,TGTGGAGACC,1
3,AGGTATATTG,1.06
4,CGAAAAACGG,0.998
5,AGCACATGTT,1
6,AAAAGGCCGA,1.02
7,GCTGGCAGCT,0.984
8,CTAATGTCGT,1.02
9,CAAGGATAAA,0.982
10,CGACTTGCAT,1.46
11,AAGAGCTAAC,1.06
12,GCCAATATTT,0.99
13,CGGTGTTAGA,1.03
14,GGGGGCGTT,1.02
15,TCGATATCGT,0.94
16,CTTAGTACTG,1.06
17,AGAGAGCGTC,0.925
18,GGCATCTGGT,0.948
19,TGAGTTGTAA,0.969
20,GGAGCTATTT,1.12
21,TCTGGCCGCA,1.54
22,CGATTTTGAC,1.02
23,AGGCTAGGG,1.04
24,TGCGCGCCGT,1.02
25,GACCTATAGA,1
26,CTCTAATTGT,1

row,Sequence,switch fluorescence ratio
1,ACGGACTTGA,1.21
2,GTTCTGTGT,0.984
3,CATTCTGTGG,0.997
4,TAAATTGGG,1.02
5,TATGCCTAAG,0.984
6,CTAACACCGT,0.941
7,CGCAAGTGTA,1.32
8,TACTTAACAC,1.08
9,TTTGTACTGT,1.04
10,CGGAAATTAT,1.04
11,TGATGCGTTA,1.02
12,CACCAAAGTA,1.01
13,AAAGTTCACA,0.969
14,CGGAGTTTGG,1.06
15,TAAGGCCTCC,1.04
16,TAGTCGCGCG,0.986
17,AACTGCCTTC,1.07
18,CGCCCTGTTT,0.972
19,ACGCGATGCG,1.03
20,GGCGTATCAT,0.967
21,TTGAAGAAGA,0.968
22,TGATGGTTTT,0.96
23,TGTTACCGAC,1.31
24,ACTTTATACA,1.09
25,TAAACCAAAG,1.06
26,TCAGCCAGAC,3.87

row,Sequence,switch fluorescence ratio
1,AATTCTCGTG,1.03
2,AAGTGTTTCA,0.996
3,GAAGTTCTAG,0.995
4,TGTCGAAAGC,1.3
5,GAAGCCAAGC,1.16
6,GTTCTATGTT,1.04
7,TAATGCCTCT,1.05
8,GGGCTGCGTC,0.988
9,CTCACGTACA,1.47
10,GTTGCGTGCC,0.993
11,CAGGCCAAAT,1.28
12,ACATGGTTTC,1.01
13,TTCAGGAAGA,1.03
14,TAGTATACGG,0.967
15,TATGTAGATC,1.01
16,AGAGGTGGGA,1.02
17,ATATTTGAGG,1.03
18,CGACAAGTGA,1.1
19,CGACGGGCTT,1.05
20,AGGAGGGTCC,0.942
21,ATTTTGAGAG,0.997
22,GCTGCCCGGG,1.02
23,GGGCCTTTT,0.958
24,CCTGGCTCTT,1.02
25,TTGTAATAAC,1.07
26,AGACCAGGCG,1.04

row,Sequence,switch fluorescence ratio
1,CAGAATGATA,0.992
2,TGTGTCTTAT,1.01
3,CCTGGTGGGC,1.01
4,TTCGTGGATG,1.02
5,CACGACCGAA,0.993
6,CCGAAGGTGG,0.999
7,ACGGTGAGGA,1.01
8,TTTTCGACGT,1.26
9,TATCGTGGT,0.972
10,TTTTCTGCAC,1.32
11,GCTATAAGTC,1.02
12,GCTAATCTCG,1.04
13,AGTGTGAACC,1.03
14,GCCACTTTCG,0.995
15,TGCGAAAAGA,0.966
16,CGGGGGCCGG,1
17,AAGGTCACGG,1.02
18,GGCTTCAGC,0.997
19,AGAAACGTGA,1.08
20,GGTGCATAG,1.05
21,AGCCTGTGTC,0.988
22,GTACGGATTG,0.997
23,TTAGACCTTT,1.06
24,TGTGAAAACC,1
25,TCCATCCACT,1.12
26,TCCGAGGCTG,2.83

row,Sequence,switch fluorescence ratio
1,CCGCGGAAAT,1.01
2,GCAACATTAA,1.01
3,ATAGCCCAGG,2.6
4,CTGCACCGTT,0.975
5,CAAAATTAT,1
6,ACACTCTTGT,1.04
7,ATGCAGTTGA,0.97
8,CTGATTTTTG,1.06
9,ACTGTTATAA,1.01
10,TTGGGTCGG,0.958
11,CGAATGTAA,1.35
12,CCCCGATCC,1.29
13,GTTGCTCACT,0.986
14,AGAAGTCTTA,0.954
15,TGTTAAAAG,0.976
16,AGTTTGGACG,0.989
17,CGGATGTCGG,0.914
18,GCTCATTGTG,0.968
19,TAGCCTGTCA,1
20,CGGGCGAAAA,0.975
21,TTCGCAGATG,1.02
22,CGGGTTCTGC,1.86
23,CGGAATTGG,1.02
24,AAGGTGCTTC,1.12
25,GATAGATAG,0.978
26,CATTACCTAA,1.04

row,Sequence,switch fluorescence ratio
1,CACATCGGTC,0.977
2,TGTTGCAT,1.02
3,CGGCGTGTGG,0.947
4,ATTACGGGTC,0.961
5,AGTACCTACC,1.59
6,TATACGGAAA,1.07
7,ATTGTAGCGG,0.959
8,AGAACCCAGT,0.976
9,AGCGAACACC,1.16
10,GCTGTCCTAA,0.974
11,TCGTTGCTC,0.984
12,AACTAGGAG,0.936
13,CATACGGCTT,1.03
14,CGGTGGCGGT,1.16
15,GATTGGACGT,1.02
16,CGGATTTGTC,0.968
17,TAGACGCA,0.99
18,GCATGGCAAA,1.02
19,TTGCTTTCCA,1.03
20,TAAGAACTA,1.03
21,ATTGGACCGT,0.988
22,TATGTTGAGA,1.01
23,CTTTTTCGGC,1.01
24,ATTTGGAATG,1
25,CCACCTGAGC,1.09
26,TTTAGCCAAC,1.08

row,Sequence,switch fluorescence ratio
1,GATTTATTGT,0.997
2,CGGATTTCTG,0.965
3,TACGCGGCCG,1.13
4,CGCACTCATC,1.55
5,GGTGCTCGTG,1
6,CAATCGCTCG,0.969
7,GCTAGGGCGC,0.977
8,CGTTAGCCTA,0.999
9,ATGTCTACGC,1.13
10,GGCATATCTA,1.04
11,CGGTTTGCCG,1.06
12,GGTGAAATGA,1.03
13,GTAGTCCGGG,0.973
14,GTGAACCCTA,1.04
15,TTCGACCTGT,0.995
16,TCAACCTTGT,1.67
17,CTGGCGTACG,0.951
18,GAGTTATGCT,0.96
19,ATTGCCAGT,1.01
